Series [1] concerns SARS-CoV-2 Omicron (B.1.1.529/BA.1) pseudovirus. In words: organism not typed. The class given is cell-based. The following applies: mean ± SD (n = 3).
In series [2] the test system is SARS-CoV-2 Omicron (BA.4/BA.5) pseudovirus. In words: organism not typed. The class given is cell-based. To be noted: mean ± SD (n = 3).
Series [3] deals with SARS-CoV-2 Delta (B.1.617.2) pseudovirus. Briefly: organism not typed. In kind it is cell-based. The following applies: mean ± SD (n = 3).
In series [4] the test system is Caco-2 cells. The following applies: 10 µM, 2 hours, pH 7.4/7.4.
The mark [5] stands for this setting: 293T/ACE2 cells, read-out: SARS-CoV-2 IC50, Omicron (BA.4/BA.5).
[6] abbreviates: A549/ACE2/TMPRSS2 cells, read-out: SARS-CoV-2 IC50, Omicron (BA.4/BA.5).
Setting [7] is: Calu-3 cells, read-out: SARS-CoV-2 Omicron BA.4/BA.5 IC50.

The record followed here is publication PMC10141620 (Viruses, 2023).

Like-named read-outs stand apart in the source and are kept apart here.

As for `O=C(O)c1cc(-c2ccc(/C=c3\sc4nc(=O)c5c6c(sc5n4c3=O)CCCC6)o2)ccc1Cl` [NBCoV36], the IC50 amounted to 368 ± 90 nM in series [1] (293T/ACE2 cells); 129 ± 2 nM in series [1] (A549/ACE2/TMPRSS2 cells); 181 ± 12 nM in series [2] (setting [5]); 310 ± 21 nM in series [2] (setting [6]); 565 ± 79 nM in series [2] (setting [7]); 802 ± 143 nM in series [3] (293T/ACE2 cells). Besides, the IC50 in series [3] (A549/ACE2/TMPRSS2 cells) came to 332 ± 26 nM.

In the case of `Cc1cc(C)c2nc3s/c(=C\c4ccc(-c5ccc(Cl)c(C(=O)O)c5)o4)c(=O)n3c2c1` [NBCoV37], the IC50 in series [1] (293T/ACE2 cells) was 135 ± 3 nM; in series [1] (A549/ACE2/TMPRSS2 cells) it was 42.5 ± 1 nM; in series [2] (setting [5]) it was 82 ± 8 nM; in series [2] (setting [6]), 215 ± 10 nM; in series [2] (setting [7]), 583 ± 35 nM; in series [3] (293T/ACE2 cells), 267 ± 23 nM. In series [3] (A549/ACE2/TMPRSS2 cells), this compound came in with an IC50 of 130 ± 35 nM.

`Cc1ccc2nc3s/c(=C/c4coc(-c5ccc(Cl)c(C(=O)O)c5)c4)c(=O)n3c2c1` [NBCoV35]: the IC50 in series [1] (293T/ACE2 cells) is 173 ± 30 nM; in series [1] (A549/ACE2/TMPRSS2 cells) it was 201 ± 38 nM; in series [2] (setting [5]) it was 94 ± 6 nM; in series [2] (setting [6]), 170 ± 13 nM; in series [2] (setting [7]) it was 520 ± 27 nM; in series [3] (293T/ACE2 cells) it was 335 ± 5 nM. Moreover, in series [3] (A549/ACE2/TMPRSS2 cells), the IC50 was 236 ± 6 nM.

In the case of `Cc1cc2nc3s/c(=C/c4ccc(-c5cccc(C(=O)O)c5)o4)c(=O)n3c2cc1C` [NBCoV63], the “Metabolic stability (human liver microsomes) Clint” value is “low-clearance compound”. For the same compound, in series [4], the “Caco-2 permeability (mean Papp) A-to-B” value is on record as “low” and the “Caco-2 permeability (mean Papp) B-to-A” value was “low”. Also, the IC50 in series [1] (293T/ACE2 cells) stood at 96 ± 11 nM. In series [1] (A549/ACE2/TMPRSS2 cells), this compound yielded an IC50 of 60 ± 3 nM. In series [2] (setting [5]), the IC50 is 34 ± 1 nM. For the same compound, the IC50 in series [2] (setting [6]) came out at 26 ± 0.5 nM. The IC50 in series [2] (setting [7]) is 126 ± 5 nM. This compound also displayed an IC50 in series [3] (293T/ACE2 cells) of 84 ± 0.5 nM. The IC50 in series [3] (A549/ACE2/TMPRSS2 cells) turned out to be 105 ± 1 nM.
